# Measurements reported in the supplement of paper PMC12067093, “Discovery and optimisation of a covalent ligand for TRIM25 and its application to targeted protein ubiquitination” (Chemical Science, 2025).
# Of roughly 21,000 targets only a part is listed; those with the largest changes were picked by preference.
# Compound: CC1Cc2ccccc2N1C(=O)C1CCCN(C1)C(=O)CCl (mixture of isomers) [TRIM25 ligand 11 (diastereomer mixture)]
# Assay: probe-labelled cysteine peptide fold change vs DMSO (competition) (log2 fold change); higher = less target engagement (more negative = stronger competition)
# Details: THP-1, incubation time: 4 h
# 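Note: competitive chemoproteomic profiling in live THP-1 cells with an iodoacetamide desthiobiotin (IA-DTB) probe, comparing probe-labelled peptide intensities in compound-treated cells against DMSO-treated controls.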
# Chain of UniProt Q5VTE0 (Q5VTE0 whole entry, looked up): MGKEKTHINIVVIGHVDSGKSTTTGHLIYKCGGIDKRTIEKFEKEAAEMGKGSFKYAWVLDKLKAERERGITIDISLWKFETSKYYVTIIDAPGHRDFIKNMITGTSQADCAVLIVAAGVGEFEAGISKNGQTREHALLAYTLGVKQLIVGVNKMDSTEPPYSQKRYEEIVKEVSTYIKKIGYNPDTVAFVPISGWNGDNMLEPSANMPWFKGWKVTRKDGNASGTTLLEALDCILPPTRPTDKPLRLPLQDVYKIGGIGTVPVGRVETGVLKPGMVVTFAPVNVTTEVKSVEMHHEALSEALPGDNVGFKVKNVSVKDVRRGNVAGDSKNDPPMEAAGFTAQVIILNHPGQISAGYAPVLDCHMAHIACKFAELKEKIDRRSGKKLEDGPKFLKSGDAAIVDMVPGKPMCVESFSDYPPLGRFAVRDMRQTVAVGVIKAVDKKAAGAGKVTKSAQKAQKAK
# Chain of UniProt Q4L180 (Q4L180 whole entry, looked up): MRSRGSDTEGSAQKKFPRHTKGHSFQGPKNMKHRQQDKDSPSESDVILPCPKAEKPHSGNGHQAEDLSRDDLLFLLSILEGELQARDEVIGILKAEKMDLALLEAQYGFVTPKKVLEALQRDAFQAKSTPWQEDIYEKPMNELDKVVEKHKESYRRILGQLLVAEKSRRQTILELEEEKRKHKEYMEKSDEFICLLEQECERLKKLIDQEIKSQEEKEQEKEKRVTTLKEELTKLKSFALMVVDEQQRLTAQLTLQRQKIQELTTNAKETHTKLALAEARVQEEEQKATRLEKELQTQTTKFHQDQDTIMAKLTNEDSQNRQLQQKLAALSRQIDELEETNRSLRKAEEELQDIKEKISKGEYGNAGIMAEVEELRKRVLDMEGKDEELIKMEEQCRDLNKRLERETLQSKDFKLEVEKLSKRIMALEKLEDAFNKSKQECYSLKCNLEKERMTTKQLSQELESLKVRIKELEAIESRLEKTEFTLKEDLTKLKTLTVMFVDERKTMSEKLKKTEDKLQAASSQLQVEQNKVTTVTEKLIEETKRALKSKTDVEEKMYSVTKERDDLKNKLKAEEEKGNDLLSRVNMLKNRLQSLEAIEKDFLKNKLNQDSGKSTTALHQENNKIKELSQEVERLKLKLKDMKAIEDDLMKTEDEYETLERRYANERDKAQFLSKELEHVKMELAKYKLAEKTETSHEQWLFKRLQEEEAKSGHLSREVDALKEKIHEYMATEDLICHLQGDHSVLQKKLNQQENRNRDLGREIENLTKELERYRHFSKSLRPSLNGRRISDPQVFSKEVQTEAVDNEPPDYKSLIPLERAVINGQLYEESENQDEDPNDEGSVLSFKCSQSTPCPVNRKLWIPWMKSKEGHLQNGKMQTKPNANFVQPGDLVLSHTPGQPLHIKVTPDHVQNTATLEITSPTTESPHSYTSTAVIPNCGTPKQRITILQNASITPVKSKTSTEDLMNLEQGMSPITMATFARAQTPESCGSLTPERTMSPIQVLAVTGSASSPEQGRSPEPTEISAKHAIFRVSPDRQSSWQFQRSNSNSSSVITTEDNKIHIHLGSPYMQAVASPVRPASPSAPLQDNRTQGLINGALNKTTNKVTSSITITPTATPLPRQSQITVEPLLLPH
# Chain of UniProt O94868 (O94868 whole entry, looked up): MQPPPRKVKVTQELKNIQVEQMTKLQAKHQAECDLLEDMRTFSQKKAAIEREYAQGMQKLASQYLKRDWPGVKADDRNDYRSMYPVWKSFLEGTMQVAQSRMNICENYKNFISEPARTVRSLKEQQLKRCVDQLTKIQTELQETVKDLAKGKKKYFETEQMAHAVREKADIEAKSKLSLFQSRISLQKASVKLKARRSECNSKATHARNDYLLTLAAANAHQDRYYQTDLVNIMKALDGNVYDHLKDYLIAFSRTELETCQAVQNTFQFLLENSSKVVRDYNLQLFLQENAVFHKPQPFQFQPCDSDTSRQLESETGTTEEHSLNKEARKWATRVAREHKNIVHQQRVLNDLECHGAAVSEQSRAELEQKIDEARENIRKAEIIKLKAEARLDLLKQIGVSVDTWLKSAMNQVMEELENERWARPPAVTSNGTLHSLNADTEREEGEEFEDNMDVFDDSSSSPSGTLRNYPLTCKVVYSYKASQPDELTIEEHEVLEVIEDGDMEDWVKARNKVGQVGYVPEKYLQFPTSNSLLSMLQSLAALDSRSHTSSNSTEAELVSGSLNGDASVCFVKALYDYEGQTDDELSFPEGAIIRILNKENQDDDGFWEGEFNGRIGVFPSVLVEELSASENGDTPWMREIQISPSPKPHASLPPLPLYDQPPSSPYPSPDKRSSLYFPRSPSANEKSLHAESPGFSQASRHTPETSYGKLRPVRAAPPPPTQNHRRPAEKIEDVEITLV
# Chain of UniProt Q96TA1 (Q96TA1 whole entry, looked up): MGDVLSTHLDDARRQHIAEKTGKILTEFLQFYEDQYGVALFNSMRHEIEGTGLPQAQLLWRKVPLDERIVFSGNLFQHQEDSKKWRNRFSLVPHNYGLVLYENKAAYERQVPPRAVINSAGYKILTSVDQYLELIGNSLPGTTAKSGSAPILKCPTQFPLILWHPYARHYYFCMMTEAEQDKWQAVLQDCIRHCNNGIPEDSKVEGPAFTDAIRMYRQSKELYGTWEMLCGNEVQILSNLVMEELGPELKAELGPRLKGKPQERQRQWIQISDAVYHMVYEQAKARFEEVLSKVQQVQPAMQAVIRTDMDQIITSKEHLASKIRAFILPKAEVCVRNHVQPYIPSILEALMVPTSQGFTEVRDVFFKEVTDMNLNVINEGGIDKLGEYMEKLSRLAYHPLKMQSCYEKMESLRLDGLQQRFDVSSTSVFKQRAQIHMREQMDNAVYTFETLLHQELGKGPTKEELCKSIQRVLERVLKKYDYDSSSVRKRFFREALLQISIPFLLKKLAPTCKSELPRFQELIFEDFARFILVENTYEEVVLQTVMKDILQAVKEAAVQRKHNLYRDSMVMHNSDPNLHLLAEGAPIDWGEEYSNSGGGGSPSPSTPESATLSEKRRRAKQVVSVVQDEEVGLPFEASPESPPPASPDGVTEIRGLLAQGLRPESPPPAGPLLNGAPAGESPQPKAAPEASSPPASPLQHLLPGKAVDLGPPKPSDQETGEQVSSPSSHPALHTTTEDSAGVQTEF
# Chain of UniProt P02679 (P02679 whole entry, looked up): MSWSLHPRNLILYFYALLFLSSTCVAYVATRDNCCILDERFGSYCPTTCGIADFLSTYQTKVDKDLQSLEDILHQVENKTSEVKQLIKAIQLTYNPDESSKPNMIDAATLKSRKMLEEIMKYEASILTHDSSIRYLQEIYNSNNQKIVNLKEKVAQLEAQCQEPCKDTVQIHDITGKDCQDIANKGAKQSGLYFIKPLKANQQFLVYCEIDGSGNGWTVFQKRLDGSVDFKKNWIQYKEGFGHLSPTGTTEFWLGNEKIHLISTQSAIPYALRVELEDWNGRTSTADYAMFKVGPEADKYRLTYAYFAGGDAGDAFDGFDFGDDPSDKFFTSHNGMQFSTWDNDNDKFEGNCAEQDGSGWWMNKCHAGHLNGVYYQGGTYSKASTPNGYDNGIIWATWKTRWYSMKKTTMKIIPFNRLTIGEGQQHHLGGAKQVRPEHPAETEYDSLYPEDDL
# Chain of UniProt P26641 (P26641 whole entry, looked up): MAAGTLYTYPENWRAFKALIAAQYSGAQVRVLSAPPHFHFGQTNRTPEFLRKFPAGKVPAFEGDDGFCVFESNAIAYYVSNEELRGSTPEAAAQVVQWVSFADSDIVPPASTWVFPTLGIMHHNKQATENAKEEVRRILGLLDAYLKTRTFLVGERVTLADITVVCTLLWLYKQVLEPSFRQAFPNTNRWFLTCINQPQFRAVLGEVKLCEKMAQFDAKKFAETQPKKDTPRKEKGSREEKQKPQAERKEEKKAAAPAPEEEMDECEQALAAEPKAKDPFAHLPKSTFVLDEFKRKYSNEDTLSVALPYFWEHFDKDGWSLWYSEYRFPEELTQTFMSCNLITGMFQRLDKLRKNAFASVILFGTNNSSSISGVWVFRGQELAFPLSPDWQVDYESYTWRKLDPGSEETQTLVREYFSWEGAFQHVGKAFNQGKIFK
# Chain of UniProt P22083 (P22083 whole entry): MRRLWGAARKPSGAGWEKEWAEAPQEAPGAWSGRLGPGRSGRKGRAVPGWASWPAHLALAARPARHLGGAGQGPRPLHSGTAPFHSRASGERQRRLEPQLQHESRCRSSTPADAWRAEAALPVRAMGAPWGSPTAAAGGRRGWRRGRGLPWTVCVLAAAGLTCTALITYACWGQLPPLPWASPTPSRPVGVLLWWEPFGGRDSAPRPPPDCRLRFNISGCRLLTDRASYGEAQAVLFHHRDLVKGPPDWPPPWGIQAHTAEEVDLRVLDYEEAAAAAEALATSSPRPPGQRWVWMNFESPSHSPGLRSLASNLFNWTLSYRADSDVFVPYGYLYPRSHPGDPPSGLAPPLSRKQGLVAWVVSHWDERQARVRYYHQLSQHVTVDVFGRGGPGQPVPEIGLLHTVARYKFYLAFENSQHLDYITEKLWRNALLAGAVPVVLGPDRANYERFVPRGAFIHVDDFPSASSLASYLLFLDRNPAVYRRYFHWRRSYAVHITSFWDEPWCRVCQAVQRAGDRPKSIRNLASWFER
# Chain of UniProt Q53HC9 (Q53HC9 whole entry, looked up): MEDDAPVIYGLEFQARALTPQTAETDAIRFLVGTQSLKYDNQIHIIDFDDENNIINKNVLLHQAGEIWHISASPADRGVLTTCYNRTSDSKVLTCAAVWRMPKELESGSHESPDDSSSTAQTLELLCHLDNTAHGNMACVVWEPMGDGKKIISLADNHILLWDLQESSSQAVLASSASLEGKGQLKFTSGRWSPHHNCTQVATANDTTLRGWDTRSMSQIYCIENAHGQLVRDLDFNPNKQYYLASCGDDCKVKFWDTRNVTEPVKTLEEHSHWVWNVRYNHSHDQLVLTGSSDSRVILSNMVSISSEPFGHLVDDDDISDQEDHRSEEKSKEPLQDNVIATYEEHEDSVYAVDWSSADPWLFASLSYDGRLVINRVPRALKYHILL
Target,probe-labelled cysteine peptide fold change (10 µM),probe-labelled cysteine peptide fold change (50 µM)
EIPR1_Q53HC9_83_GVLTTCYNR (UniProt Q53HC9),0.0806,0.00638
EEF1A1P5_Q5VTE0_363+370_GNVAGDSKNDPPMEAAGFTAQVIILNHPGQISAGYAPVLDCHMAHIACK (UniProt Q5VTE0),-0.549,-0.652
FUT8_Q9BYC5_266_YATGGWETVFRPVSETCTDR (UniProt Q9BYC5),0.158,-0.0564
FCHSD2_O94868_33_HQAECDLLEDMR (UniProt O94868),-0.00171,-0.0995
EIF5B_O60841_853_RLAHCEELR (UniProt O60841),0.132,0.127
EEF1G_P26641_339_FPEELTQTFMSCNLITGMFQR (UniProt P26641),0.678,-0.499
FKBP4_Q02790_342_LQAFSAAIESCNK (UniProt Q02790),0.0532,0.0437
F2_P00734_391_KSPQELLCGASLISDR (UniProt P00734),0.655,0.598
FGG_P02679_34_DNCCILDER (UniProt P02679),0.567,0.313
EIF3B_P55884_515_NLFNVVDCK (UniProt P55884),0.0721,0.16
FUT4_P22083_211_DSAPRPPPDCR (UniProt P22083),0.0479,0.119
FILIP1L_Q4L180_990_AQTPESCGSLTPER (UniProt Q4L180),-0.184,-0.0447
FSCN1_Q16658_121_YFGGTEDRLSCFAQTVSPAEK (UniProt Q16658),-0.738,-0.364
FLNA_P21333_2378_VHSPSGALEECYVTEIDQDK (UniProt P21333),0.593,0.639
FAM129B_Q96TA1_194_HCNNGIPEDSK (UniProt Q96TA1),0.0587,0.107
EIF3CL_B5ME19_568+572_TCAILCHIYHHALHSR<|>EIF3C_Q99613_567+571_TCAILCHIYHHALHSR (UniProt Q99613+B5ME19),0.432,0.612
